Data: the supplement of paper PMC7826260
This is one part of the list. The data describe in vitro nicking of single-stranded DNA by Rep domains at 3 µM enzyme and 37 °C for 1 h; the strands have 90 letters, of which the middle is given. Values are log2 of uncut reads against the no-enzyme pool; the lower, the more was cut; hits are not called. Reads are scaled to the total, so uncut sequences can rise above 0 when many others are cut.

Assays:
Test in all cases: uncleaved DNA left, log2 of reads against the no-enzyme library (log2 ratio); higher = less cleavage (more negative = more Rep cleavage of the k-mer); sequences stand for … in CTCGTCCG…ACCGGAGA
[1] = test system: T1, Rep nickase domain of Muscovy duck circovirus
T1 sequence (protein, residues 1-111, tag omitted): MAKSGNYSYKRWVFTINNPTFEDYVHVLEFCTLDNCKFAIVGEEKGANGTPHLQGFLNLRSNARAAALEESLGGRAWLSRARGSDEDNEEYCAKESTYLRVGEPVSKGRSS
Description: (§1)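 A pool of 90-nt single-stranded DNAs with seven random bases just before the constant AC of the nick site (name = the seven bases) was cut by 3 µM recombinant His6-SUMO-tagged Rep nickase domain (300 nM DNA, 50 mM HEPES pH 8.0, 50 mM NaCl, 1 mM MnCl2, 1 h, 37 °C, three replicates). Uncut DNA was amplified and sequenced.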

[2] = test system: T2, Rep nickase domain of banana bunchy top virus
T2 sequence (protein, residues 1-94, tag omitted): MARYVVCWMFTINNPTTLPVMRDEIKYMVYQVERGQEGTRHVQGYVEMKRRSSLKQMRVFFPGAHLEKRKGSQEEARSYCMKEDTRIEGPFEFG
Description: as §1

[3] = test system: T3, Rep nickase domain of cabbage leaf curl virus
T3 sequence (protein, residues 1-116, tag omitted): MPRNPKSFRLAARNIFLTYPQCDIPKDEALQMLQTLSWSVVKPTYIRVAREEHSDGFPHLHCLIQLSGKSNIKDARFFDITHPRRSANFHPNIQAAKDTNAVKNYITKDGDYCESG
Description: as §1

[4] = test system: T4, Rep nickase domain of chickpea chlorotic dwarf virus
T4 sequence (protein, residues 1-124, tag omitted): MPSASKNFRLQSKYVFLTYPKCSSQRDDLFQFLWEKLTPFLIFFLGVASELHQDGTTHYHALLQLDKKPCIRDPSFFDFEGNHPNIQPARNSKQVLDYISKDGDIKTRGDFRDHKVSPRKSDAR
Description: as §1

[5] = test system: T5, Rep nickase domain of faba bean necrotic yellows virus
T5 sequence (protein, residues 1-98, tag omitted): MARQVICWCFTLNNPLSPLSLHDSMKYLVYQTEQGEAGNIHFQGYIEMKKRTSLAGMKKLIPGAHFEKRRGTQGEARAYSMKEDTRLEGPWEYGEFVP
Description: as §1

[6] = test system: T6, Rep nickase domain of maize striate mosaic virus
T6 sequence (protein, residues 1-117, tag omitted): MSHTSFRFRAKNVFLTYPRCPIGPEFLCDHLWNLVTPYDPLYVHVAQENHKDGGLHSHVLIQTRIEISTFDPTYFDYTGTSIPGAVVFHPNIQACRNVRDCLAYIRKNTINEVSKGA
Description: as §1

[7] = test system: T7, Rep nickase domain of porcine circovirus 2
T7 sequence (protein, residues 2-116, tag omitted): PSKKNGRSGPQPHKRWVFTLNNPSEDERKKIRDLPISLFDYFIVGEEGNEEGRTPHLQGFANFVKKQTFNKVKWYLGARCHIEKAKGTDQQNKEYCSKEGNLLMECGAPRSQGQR
Description: as §1

[8] = test system: T8, Rep nickase domain of tomato yellow leaf curl virus
T8 sequence (protein, residues 1-136, tag omitted): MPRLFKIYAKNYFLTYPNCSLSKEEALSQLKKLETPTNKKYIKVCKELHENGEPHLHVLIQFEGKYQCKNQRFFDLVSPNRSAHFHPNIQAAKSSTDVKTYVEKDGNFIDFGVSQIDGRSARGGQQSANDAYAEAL
Description: as §1

[9] = test system: T9, Rep nickase domain of wheat dwarf virus
T9 sequence (protein, residues 1-137, tag omitted): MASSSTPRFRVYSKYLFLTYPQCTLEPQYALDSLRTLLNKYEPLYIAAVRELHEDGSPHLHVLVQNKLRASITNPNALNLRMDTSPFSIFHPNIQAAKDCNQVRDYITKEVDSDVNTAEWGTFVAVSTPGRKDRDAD
Description: as §1

Row | Sequence | uncleaved DNA left (log2) [1] | uncleaved DNA left (log2) [2] | uncleaved DNA left (log2) [3] | uncleaved DNA left (log2) [4] | uncleaved DNA left (log2) [5] | uncleaved DNA left (log2) [6] | uncleaved DNA left (log2) [7] | uncleaved DNA left (log2) [8] | uncleaved DNA left (log2) [9]
1 | GCCTGGC | 0.096 | 0.0434 | 0.0107 | 0.261 | 0.0687 | -0.28 | 0.128 | 0.108 | 0.0255
2 | GGTAGCA | 0.0934 | 0.061 | 0.431 | 1.14 | -0.0247 | 1.4 | 0.112 | 0.0622 | 0.0225
3 | TAGGGGT | 0.0329 | -0.0561 | 0.222 | 1.19 | 0.0193 | 1.74 | 0.0299 | -0.00426 | 0.133
4 | GGGTCTG | 0.162 | 0.158 | 0.743 | 1.73 | 0.00468 | 2.12 | 0.192 | 0.0164 | 0.118
5 | TCTTAGG | 0.0327 | 0.11 | 0.457 | 1.43 | 0.147 | 1.85 | 0.0686 | -0.115 | -0.0349
6 | CGCACGC | -0.0107 | -0.025 | -0.0777 | 0.0226 | -0.0133 | -0.225 | -0.0982 | -0.108 | -0.0761
7 | ATGTGCT | -0.579 | -0.0326 | -0.677 | -1.55 | -0.17 | -0.821 | -3.13 | 0.00607 | -0.065
8 | GTAGCTG | 0.105 | 0.0264 | 0.372 | 1.44 | 0.103 | 1.73 | 0.176 | -0.126 | 0.141
9 | AATCGTA | -0.00473 | -0.04 | -0.324 | -1.7 | 0.0755 | -0.985 | -0.322 | 0.0438 | -0.0653
10 | TTCAACA | -0.134 | 0.0131 | -0.00196 | -2.27 | -0.0663 | 0.0545 | -0.0547 | -0.0542 | -0.079
11 | AGATTTT | -3.58 | -0.228 | -0.38 | -2.21 | -0.084 | -0.258 | -3.79 | -0.0134 | -0.404
12 | AGGCTCA | -0.0266 | 0.024 | 0.262 | 0.14 | 0.0101 | 0.664 | 0.0723 | 0.00522 | -0.00621
13 | CAAAATT | -0.0239 | -0.602 | -3.61 | -3.25 | 0.202 | -2.28 | -3.43 | 0.008 | -3.46
14 | GCTCAAC | -0.0844 | 0.0525 | 0.0491 | -0.315 | 0.00374 | 0.14 | 0.0317 | -0.0614 | 0.0326
15 | ATGGTTA | 0.0556 | 0.0586 | -0.0762 | -0.108 | -0.00346 | 0.723 | 0.0608 | -0.11 | 0.0149
16 | ATGACAA | -0.0845 | 0.0265 | 0.166 | 0.618 | 0.0333 | 0.298 | 0.0347 | 0.00173 | 0.108
17 | GTAGCTC | -0.131 | -0.0654 | 0.345 | 0.696 | -0.0761 | 1.34 | -0.00185 | -0.0114 | -0.0279
18 | CGGTTCT | -0.51 | -0.138 | 0.00249 | -0.358 | 0.00108 | 0.507 | -1.81 | -0.128 | -0.0162
19 | ATTCCGT | 0.0441 | -0.011 | -0.236 | -0.731 | 0.0216 | -0.969 | -0.176 | 0.0265 | -0.0912
20 | CGCCCAC | 0.0542 | 0.0681 | -0.0215 | -0.115 | 0.00556 | -0.134 | -0.0728 | 0.0505 | 0.0936
21 | CTCTATG | 0.0783 | -0.0612 | -0.43 | -0.714 | 0.0194 | -1.02 | 0.0694 | 0.0924 | -0.0214
22 | AAGGCGA | -0.00624 | -0.116 | -0.665 | -0.674 | 0.0909 | -0.936 | -0.0262 | -0.0911 | -0.0395
23 | TGATTTG | 0.0297 | -0.0454 | -0.36 | -0.646 | 0.0225 | -1.05 | 0.18 | -0.000803 | -0.0518
24 | GCCCCCG | -0.173 | -0.0481 | -0.646 | -0.564 | -0.0187 | -0.598 | -0.0525 | -0.0727 | -0.176
25 | TGTGAAA | 0.0399 | 0.0639 | 0.211 | 0.728 | 0.0327 | 0.992 | 0.169 | 0.0175 | 0.0524
26 | GCGGTGT | -0.0772 | -0.0725 | 0.203 | 0.489 | -0.12 | 0.843 | 0.0362 | -0.0598 | -0.245
27 | TTAAACG | 0.0199 | -0.00595 | -0.886 | -0.551 | -0.0321 | -1.1 | 0.272 | -0.022 | -0.0783
28 | ATTATCA | -0.0652 | 0.0814 | 0.618 | 0.885 | 0.0567 | 1.27 | 0.0604 | 0.0945 | 0.23
29 | TCGACCG | 0.00213 | -0.0527 | -0.303 | -0.48 | 0.0501 | -0.823 | 0.116 | 0.0151 | 0.0509
30 | CGTACAC | 0.093 | 0.124 | 0.231 | -0.00801 | 0.136 | -0.143 | 0.0728 | 0.18 | 0.162
